{
  "source": "the BET-seq Pho4 binding data (Le et al. 2018)",
  "note": "Some of the results follow. Values were computed here from the reads of four pooled replicates and scatter widely.",
  "data": [
    {"target": "T1, Pho4 (S. cerevisiae) (UniProt P07270)", "T1 sequence": "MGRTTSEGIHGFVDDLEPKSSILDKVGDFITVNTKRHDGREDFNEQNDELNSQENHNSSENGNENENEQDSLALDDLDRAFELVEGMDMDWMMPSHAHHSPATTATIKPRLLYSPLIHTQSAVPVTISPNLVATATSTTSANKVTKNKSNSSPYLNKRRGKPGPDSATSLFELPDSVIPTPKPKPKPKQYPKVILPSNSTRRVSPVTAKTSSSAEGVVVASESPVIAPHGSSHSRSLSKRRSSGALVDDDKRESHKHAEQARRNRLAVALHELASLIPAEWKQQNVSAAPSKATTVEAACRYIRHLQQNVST", "experiment": "relative binding free energy (BET-seq); higher = weaker binding", "conditions": "reference: library average", "units": {"relative binding free energy": "kcal/mol"}, "values": [
      {"sequence": "GCGTGCACGTGTTCGT", "relative binding free energy": 0.01},
      {"sequence": "CTTGGCACGTGGCCGG", "relative binding free energy": -0.22},
      {"sequence": "TATTGCACGTGATTTC", "relative binding free energy": 0.24},
      {"sequence": "TCTTTCACGTGGGCTG", "relative binding free energy": 0.18},
      {"sequence": "GGGCACACGTGAGGGC", "relative binding free energy": 0.32},
      {"sequence": "TTGATCACGTGTGGGT", "relative binding free energy": 0.18},
      {"sequence": "AAGGGCACGTGTGTAG", "relative binding free energy": -0.04},
      {"sequence": "GGAGTCACGTGGTGGG", "relative binding free energy": 0.06},
      {"sequence": "TTTATCACGTGAAAGG", "relative binding free energy": 0.31},
      {"sequence": "GGTAGCACGTGAGCTT", "relative binding free energy": 0.24},
      {"sequence": "TTGCTCACGTGAGGCT", "relative binding free energy": 0.35},
      {"sequence": "TGTCGCACGTGTAGTT", "relative binding free energy": -0.02},
      {"sequence": "CACTGCACGTGGGTGT", "relative binding free energy": -0.26},
      {"sequence": "TACAACACGTGTTTGT", "relative binding free energy": -0.06},
      {"sequence": "GGCGGCACGTGAATTG", "relative binding free energy": 0.13},
      {"sequence": "GAGAACACGTGGATTG", "relative binding free energy": 0.2},
      {"sequence": "TATTGCACGTGGTGAA", "relative binding free energy": -0.02},
      {"sequence": "GGTTTCACGTGGGCTG", "relative binding free energy": 0.24},
      {"sequence": "GATTACACGTGTGATG", "relative binding free energy": 0.16},
      {"sequence": "TAGGTCACGTGGGCGT", "relative binding free energy": -0.15},
      {"sequence": "ATGGACACGTGGTTAG", "relative binding free energy": -0.21},
      {"sequence": "AGAGGCACGTGATGCG", "relative binding free energy": -0.1},
      {"sequence": "TGCAGCACGTGCTGGT", "relative binding free energy": -0.12},
      {"sequence": "TAGGTCACGTGCAAGT", "relative binding free energy": -0.01},
      {"sequence": "GGCTGCACGTGGTTAT", "relative binding free energy": -0.01},
      {"sequence": "TGCGGCACGTGGCGTA", "relative binding free energy": -0.31},
      {"sequence": "GGATTCACGTGTTTCT", "relative binding free energy": 0.35},
      {"sequence": "TGTGGCACGTGGCGCA", "relative binding free energy": -0.2},
      {"sequence": "CCGTTCACGTGTTGGG", "relative binding free energy": 0.24},
      {"sequence": "AAGGTCACGTGGATAA", "relative binding free energy": 0.14},
      {"sequence": "GGGGTCACGTGGAGAC", "relative binding free energy": 0.13},
      {"sequence": "ATGTTCACGTGGAGGC", "relative binding free energy": 0.2},
      {"sequence": "AGGATCACGTGGGGCA", "relative binding free energy": -0.16},
      {"sequence": "GTCCACACGTGTGGTG", "relative binding free energy": 0.18},
      {"sequence": "GGTCTCACGTGTAATT", "relative binding free energy": 0.33},
      {"sequence": "TAAAGCACGTGGGGAA", "relative binding free energy": -0.24},
      {"sequence": "ATCATCACGTGAGTGA", "relative binding free energy": 0.41},
      {"sequence": "AGAAGCACGTGGATGT", "relative binding free energy": -0.04},
      {"sequence": "ATGGGCACGTGAGTTT", "relative binding free energy": 0.08},
      {"sequence": "ATGCTCACGTGAGTAG", "relative binding free energy": 0.38},
      {"sequence": "TAAATCACGTGGGATA", "relative binding free energy": 0.13},
      {"sequence": "TTTCCCACGTGGTTGG", "relative binding free energy": -0.02},
      {"sequence": "GGGTTCACGTGAGGCA", "relative binding free energy": 0.33},
      {"sequence": "ATTGTCACGTGTGCGG", "relative binding free energy": 0},
      {"sequence": "GTTTGCACGTGCACGG", "relative binding free energy": -0.19},
      {"sequence": "AGTCTCACGTGTAGTT", "relative binding free energy": 0.2},
      {"sequence": "TCGGACACGTGGGAAG", "relative binding free energy": 0.09},
      {"sequence": "TAGCACACGTGGAGGG", "relative binding free energy": 0.07},
      {"sequence": "GATAGCACGTGGTTGA", "relative binding free energy": -0.03},
      {"sequence": "TTTATCACGTGACGTG", "relative binding free energy": 0.21},
      {"sequence": "GTCGTCACGTGGGCGG", "relative binding free energy": -0.05},
      {"sequence": "CATGGCACGTGGATGG", "relative binding free energy": -0.07},
      {"sequence": "TTTGACACGTGATGTT", "relative binding free energy": 0.22},
      {"sequence": "CGCGTCACGTGTGTGA", "relative binding free energy": -0.09},
      {"sequence": "ATATTCACGTGGGGCG", "relative binding free energy": 0.11},
      {"sequence": "TATTTCACGTGGACTT", "relative binding free energy": 0.3},
      {"sequence": "TTATTCACGTGCGTAG", "relative binding free energy": 0.15},
      {"sequence": "TATTGCACGTGGTGAC", "relative binding free energy": -0.03},
      {"sequence": "CGGGCCACGTGGAAGT", "relative binding free energy": 0.06},
      {"sequence": "ACTTACACGTGTTTTT", "relative binding free energy": 0.11},
      {"sequence": "CTAATCACGTGGTGAT", "relative binding free energy": 0.14},
      {"sequence": "AGATTCACGTGAGGTC", "relative binding free energy": 0.55},
      {"sequence": "AGTATCACGTGAAAGA", "relative binding free energy": 0.43},
      {"sequence": "AGGGCCACGTGGTGGC", "relative binding free energy": -0.22},
      {"sequence": "GTGGACACGTGAATTA", "relative binding free energy": 0.43},
      {"sequence": "GCGTTCACGTGCGGAT", "relative binding free energy": 0.38},
      {"sequence": "TCTAGCACGTGGGTCG", "relative binding free energy": -0.23},
      {"sequence": "CGGCTCACGTGCGTGG", "relative binding free energy": 0.09},
      {"sequence": "CGTTGCACGTGTTGTG", "relative binding free energy": 0.03},
      {"sequence": "CGGTCCACGTGGTGGC", "relative binding free energy": -0.05},
      {"sequence": "TAGTTCACGTGTCTGC", "relative binding free energy": 0.37},
      {"sequence": "TCAGGCACGTGTTCAG", "relative binding free energy": 0.01},
      {"sequence": "CTTAGCACGTGTAAGT", "relative binding free energy": -0.05},
      {"sequence": "CGTGGCACGTGTTTAG", "relative binding free energy": -0.07},
      {"sequence": "ATTAACACGTGGCGTG", "relative binding free energy": 0.01},
      {"sequence": "ATTTTCACGTGTGTTG", "relative binding free energy": 0.27},
      {"sequence": "GGCTGCACGTGCATGT", "relative binding free energy": 0.08},
      {"sequence": "ATTGTCACGTGGGCCG", "relative binding free energy": 0},
      {"sequence": "AATTGCACGTGGATGT", "relative binding free energy": -0.1},
      {"sequence": "TTTGGCACGTGATGAA", "relative binding free energy": -0.06},
      {"sequence": "ACATTCACGTGGTATG", "relative binding free energy": 0.28},
      {"sequence": "ACTGGCACGTGTGTGA", "relative binding free energy": -0.13},
      {"sequence": "TATTGCACGTGGGGGA", "relative binding free energy": -0.16},
      {"sequence": "ACGTGCACGTGGTCGG", "relative binding free energy": 0.04},
      {"sequence": "TCTAACACGTGAGTTG", "relative binding free energy": 0.25},
      {"sequence": "CTTAGCACGTGGGTGC", "relative binding free energy": -0.14},
      {"sequence": "CGGTACACGTGGTTGT", "relative binding free energy": -0.01},
      {"sequence": "CGATGCACGTGCAGGT", "relative binding free energy": 0.07},
      {"sequence": "GTTCACACGTGTGCGG", "relative binding free energy": 0.13},
      {"sequence": "GTGGGCACGTGTTCCG", "relative binding free energy": -0.18},
      {"sequence": "GCGAGCACGTGGGTTG", "relative binding free energy": -0.25},
      {"sequence": "GGGAACACGTGGCATG", "relative binding free energy": 0.1},
      {"sequence": "GGAGGCACGTGTTAGG", "relative binding free energy": -0.12},
      {"sequence": "GATGACACGTGTTTAT", "relative binding free energy": 0.15},
      {"sequence": "CGTGTCACGTGTAAGG", "relative binding free energy": 0.22},
      {"sequence": "GTCCTCACGTGTGTGG", "relative binding free energy": 0.2},
      {"sequence": "AGTGGCACGTGGCAAG", "relative binding free energy": -0.27},
      {"sequence": "GTTGTCACGTGCATTT", "relative binding free energy": 0.04},
      {"sequence": "ATGAGCACGTGAGTAT", "relative binding free energy": 0.17},
      {"sequence": "GAGTTCACGTGGTGTC", "relative binding free energy": 0.18},
      {"sequence": "TGACGCACGTGCGGTT", "relative binding free energy": -0.06},
      {"sequence": "GTGGACACGTGTTTGC", "relative binding free energy": 0.15},
      {"sequence": "GATGTCACGTGGATGA", "relative binding free energy": 0.13},
      {"sequence": "AGTGCCACGTGAAGTT", "relative binding free energy": 0.17},
      {"sequence": "ATTTTCACGTGTAACG", "relative binding free energy": 0.27},
      {"sequence": "GTCTTCACGTGGTGTT", "relative binding free energy": 0.25},
      {"sequence": "CGTGTCACGTGTGAGC", "relative binding free energy": 0.12},
      {"sequence": "CTGGACACGTGGATAT", "relative binding free energy": 0.17},
      {"sequence": "GATGACACGTGTAGGA", "relative binding free energy": 0.17},
      {"sequence": "CGTATCACGTGTAGTT", "relative binding free energy": 0.23},
      {"sequence": "AGGAGCACGTGTAGGG", "relative binding free energy": -0.24},
      {"sequence": "GGGGACACGTGTTAGT", "relative binding free energy": 0.08},
      {"sequence": "ATTGCCACGTGGCGTG", "relative binding free energy": -0.19},
      {"sequence": "TTGAGCACGTGACGGG", "relative binding free energy": -0.08},
      {"sequence": "GGTGGCACGTGGGCAT", "relative binding free energy": -0.23}
    ]}
  ]
}
